Assay results: PubChem BioAssay AID1508623 (National Center for Advancing Translational Sciences (NCATS), 2021)
Out of some 48,000 compounds screened, about 450 (0.94%) were called active. Not shown: some 19% with an inconclusive outcome. The call rests on the fitted dose curve; in most records, active means well fitted inhibition curve with a large enough effect; inconclusive means small, poorly fitted or top-dose-only effect; inactive means no such curve, though single readings can be large or run the other way. The list shows a part of the results.

test: Primary qHTS for Identification of Small Molecule Inhibitors of Huntingtin Promoter Activity; conditions: HEK293 HTT promoter firefly luciferase reporter (activity 0% = vehicle and -100% = no light), 24 h; series mostly up to 57.5 µM; activity change, negative = inhibition: at the top concentration; further: nearly all actives have a fitted effect of over 50% in size
How it was run: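 Luminescence was read after Dual-Glo reagent and a 10 min room-temperature incubation. Values were normalized to vehicle (0% activity) and zero RLU (-100% activity). Reporter HEK293 cells had been exposed to compounds (up to 57.5 uM final) for 24 h.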

Row | Structure (SMILES) | activity change, negative = inhibition
1 | CCOc1ccc(NC(=O)c2c(NC(=O)c3cccs3)sc3c2CCC(C(C)(C)C)C3)cc1 (centres undefined) | inactive: -6.27%
2 | CNC(=O)C1CCN(c2nc3ccccc3nc2C(F)(F)F)CC1 | inactive: -19.9%
3 | O=C(Nc1ccc(C(F)(F)F)cc1)N1CCC(N2CCCCC2)CC1 | inactive: -4.19%
4 | COc1cc(Cl)c(C)cc1NC(=O)c1cnc2c(-c3cccc(C)c3)c(C)nn2c1C | inactive: -24.7%
5 | CNC(=O)c1ccc(CSc2nc3ccncc3n2Cc2ccc(C)cc2)cc1 | inactive: -25.1%
6 | CCCN(C(=O)Cn1cc(S(=O)(=O)N2CCN(c3ccccc3F)CC2)c2ccccc2c1=O)c1cccc(C)c1 | inactive: -14.7%
7 | CC(C)CN(CCNC(=O)c1cc(-c2ccc(Cl)s2)nc2ccccc12)CC(C)C | inactive: -5.06%
8 | CCOc1ccc(OCC)c(Nc2nc3ccc(Cl)cc3n3cnnc23)c1 | inactive: -19.4%
9 | COc1cccc(CNC(=O)Cn2c(C)c3cnn(-c4ccccc4)c(=O)c3c2C)c1 | inactive: -11.7%
10 | CC(C)(C)C(=O)Cn1c(=O)n(-c2ccc(Cl)c(Cl)c2)c(=O)c2c3c(sc21)CCCC3 | inactive: -7.84%
11 | Cc1cc(C)cc(N2CCn3c2nc2c3c(=O)n(CCCc3ccccc3)c(=O)n2C)c1 | inactive: 6.78%
12 | COCc1cc(C)nc2sc(C(=O)Nc3cc(C)ccc3F)c(N)c12 | inactive: 69.9%
13 | Cc1ccc(CNC(=O)CCCn2c(=O)c3ccccc3n(Cc3ccc(Cl)cc3)c2=O)cc1 | inactive: -4.35%
14 | CN(C(=O)CSc1nnc(-c2ccc([N+](=O)[O-])cc2)o1)c1ccccc1 | inactive: -3.26%
15 | COc1ccc(CCNC(=O)Cn2cc(C(=O)c3ccc(F)cc3)c(=O)c3ccc(C)nc32)cc1OC | inactive: 0.557%
16 | Cc1ccc(CNC(=O)CCC(=O)N2CCSc3ccccc32)cc1 | inactive: -17.1%
17 | Cc1cccc(-c2nc3ccccc3n3c(-c4ccccc4)c4c(=O)n(C)c(=O)n(C)c4c23)c1 | inactive: -12.1% [at 11.5 µM]
18 | O=C(Nc1ccc(F)c(Cl)c1)N1CCC(CN2CCc3ccccc3C2)CC1 | inactive: -24.3%
19 | CC(C)(C(=O)O)c1ccc(C(O)CCCN2CCC(C(O)(c3ccccc3)c3ccccc3)CC2)cc1 (centres undefined) | inactive: 7.18%
20 | O=c1cc(N2CCOCC2)oc2c(-c3cccc4c3sc3ccccc34)cccc12 | inactive: -10.7%

Row | Structure (SMILES) | activity change, negative = inhibition
21 | CCC(C)NC(=O)CCc1c(C)nc2cc(-c3ccc(OC)cc3OC)nn2c1C (centres undefined) | inactive: -9.01%
22 | Cc1cccc(CCNC(=O)C2CCN(c3nc4ccccc4nc3C(F)(F)F)CC2)c1 | inactive: -9.98%
23 | CCc1ccc(NC(=O)Cn2cnc3sc(C)c(S(=O)(=O)N4CCN(c5ccccc5OC)CC4)c3c2=O)cc1 | inactive: -8.23%
24 | COc1ccc(-n2nnc(-c3nc(-c4cccs4)no3)c2N)cc1 | inactive: 72.8%
25 | Cc1oc(-c2ccccc2F)nc1CSc1nnc(C)n2c1cc1occc12 | inactive: -3.83%
26 | CC(C)(C)OC(=O)N1CCC(c2c(C(=O)N3CCOCC3)cnn2-c2cccc(F)c2)CC1 | inactive: -6.82%
27 | COC(=O)c1ccccc1-n1cc2c(c1-c1cccc(C)c1)c(=O)n(C)c(=O)n2C | inactive: -25%
28 | CCOC(=O)c1cnc2ccc(Cl)cc2c1Nc1ccc(N2CCOCC2)cc1 | inactive: -31.9%
29 | O=C(Nc1ccc(C(=O)N2CCN(c3ccccc3)CC2)cc1)c1nsc2ccccc12 | inactive: -23.7%
30 | CCCN(CCC)CCNC(=O)C1CCN(c2nc3ccc(CC)cc3s2)CC1 | inactive: 24.7%
31 | Cc1ccc(S(=O)(=O)c2cn(Cc3ccc(F)cc3)c3cc(N4CCCC4)c(F)cc3c2=O)cc1 | inactive: -6.12%
32 | CCc1ccccc1NC(=O)C(=O)NCCc1sc(-c2cccc(F)c2)nc1C | inactive: -28.6%
33 | COc1cc2c(cc1O)CCC1C2CC[C@@]2(C)C1CC[C@@H]2O (some centres undefined) | inactive: -15.9%
34 | CC(C)Oc1ccc(CNC(=O)Cn2ncn3nc(-c4cccs4)cc3c2=O)cc1 | inactive: -23.5%
35 | COC(=O)c1ccccc1-n1c(CCC(=O)O)ccc1-c1ccccc1 | inactive: -8.87% [at 11.5 µM]
36 | COc1cccc(CNC(=O)c2ccc3c(c2)nc2n3CCC(C)C2)c1OC (centres undefined) | inactive: 4.79%
37 | COc1ccc(C(=O)NCC(c2ccco2)S(=O)(=O)c2cccs2)cc1OC (centres undefined) | inactive: -22.7%
38 | Cc1ccnc(NS(=O)(=O)c2ccc(NC(=O)c3nc(SC(C)C)ncc3Cl)cc2)n1 | inactive: -18.6%
39 | COc1cccc(C2Nc3ccccc3-c3nnc(SCc4ccccc4)nc3O2)c1OC (centres undefined) | inactive: 2.52%
40 | Cc1ccc(S(=O)(=O)c2nc(-c3ccccc3)oc2SCC(=O)NC2CCCCC2)cc1 | inactive: -2.53%

Row | Structure (SMILES) | activity change, negative = inhibition
41 | COc1ccc(NC(=O)C(CC(C)C)NS(=O)(=O)c2ccc3c(c2)oc(=O)n3C)cc1Cl (centres undefined) | inactive: -27.1%
42 | CCOc1ccc(NC(=O)Cn2c(=O)n(Cc3nc(-c4ccccc4)no3)c(=O)c3ccccc32)cc1 | inactive: -14.3%
43 | CCOC(=O)C1=C(CS(=O)(=O)c2ccc(C)c(C)c2)NC(=O)NC1c1ccccc1OCC (centres undefined) | inactive: -12.2%
44 | COc1ccc(N(CC(=O)N2CCN(c3cccc(OC)c3)CC2)S(=O)(=O)c2c(C)noc2C)cc1 | inactive: -21.3%
45 | O=C(Cn1c(=O)ccc2cc(S(=O)(=O)N3CCCC3)ccc21)NCc1ccc(F)cc1 | inactive: -5.87%
46 | COc1ccc(CCNC(=O)CSCc2nc(-c3ccc(OC)c(OC)c3)oc2C)cc1OC | inactive: -26.9%
47 | COc1cc(OC)c(NC(=O)c2ccc3c(Cl)c4c(nc3c2)CCCC4)cc1Cl | inactive: -53.1%
48 | CN1C(C)(C)CCCC1(C)C | inactive: 0.577%
49 | COCCNc1ccc(-c2nc(-c3cccc(C)c3)no2)cc1[N+](=O)[O-] | inactive: 23.5%
50 | CC1CCCN(C(=O)Cn2c(=O)n(CC3CCC(C(=O)NC(C)C)CC3)c(=O)c3sccc32)C1 (centres undefined) | inactive: -2.26%
51 | Cn1c(-n2cccc2)c(-c2c(-c3ccc(F)cc3)[nH]c3c2c(=O)[nH]c(=O)n3C)c(=O)[nH]c1=O | inactive: 2.35%
52 | COc1ccc(-n2ncc3c2ncn2nc(-c4ccc(Cl)cc4Cl)nc32)cc1 | inactive: -15.5%
53 | COc1cccc(OC)c1Cn1nnc2c(=O)[nH]c(C3CCN(C(=O)c4ccccc4)CC3)nc21 | inactive: -13.3%
54 | Cn1cc(-c2ccc3ncc(Cc4ccc5ncccc5c4)n3n2)cn1 | inactive: -5.37%
55 | CC1(C)Oc2ccc(C#N)cc2[C@@H](N2CCCC2=O)[C@@H]1O | inactive: 0.882%
56 | CSc1ccc(CCNC(=O)c2ccc3c(c2)nc2n3CCOC2)cc1 | inactive: 2.09%
57 | CCOC(=O)c1c(NC(=O)c2nc(SC)ncc2Cl)sc(C)c1C | inactive: -6.97%
58 | COc1cccc(-c2ccnc3[nH]n(-c4ccccc4)c(=O)c23)c1 | inactive: 26.2%
59 | Cc1ccc(-n2c(SCC(=O)N3CCC(C)CC3)nc3c([nH]c4ccccc43)c2=O)cc1 | inactive: 31.1%
